# Screen size: about 340,000 compounds; about 12,000 (3.5%) were called active. Inconclusive results, whose numbers are uncertain, are shown with a selection of clear calls. The call rests on the fitted dose curve; in most records, active means well fitted inhibition curve with a large enough effect; inconclusive means small, poorly fitted or top-dose-only effect, or another doubt; inactive means no such curve, though single readings can be large or run the other way. Potencies of inconclusive entries are left out as doubtful fits.
# Test: qHTS Assay for Inhibitors of Hepatitis C Virus (HCV)
# Details: Huh7.5.1 HCVcc-Cre (HCVcc is cell-culture hepatitis C virus) infection, luciferase reporter, 44 h; series mostly up to 41.8 µM
# In short: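 1,000 cells/well; 4 h culture; + compound; + HCVcc-Cre (~0.5 moi); 44 h; luciferase substrate, RT 15 min; read 15 sec.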
# Potency means the concentration at half of the fitted maximal effect; tags describe the fitted curve by direction and shape.
row,Compound,Potency
1,CCOc1ccc(S(=O)(=O)Nc2cccc(C(=O)NCC(c3ccco3)N3CCCC3)c2)cc1 (centres undefined),"inconclusive [inhibitor, single point]"
2,CCCCOc1ccccc1-c1ccccc1CN1[C@@H](C(C)C)COCCS1(=O)=O,"inconclusive [inhibitor, single point]"
3,COc1ccc(S(=O)(=O)N2CCN(C(=O)CC3CC4CCC3C4)CC2)cc1 (centres undefined),"inconclusive [inhibitor, full curve, poor fit]"
4,C=CCOc1ccc(C2C(C#N)=C(N)N(Nc3ccccc3)C3=C2C(=O)CCC3)cc1OC (centres undefined),"inconclusive [inhibitor, full curve, poor fit]"
5,Cc1ccc(-c2nn(-c3cccc(F)c3)cc2CN2CCN(c3ccccn3)CC2)o1,"inconclusive [inhibitor, single point]"
6,CC1(C)C(N(O)C(=O)Nc2ccc(Cl)cc2)N(c2ccc(Cl)cc2)C(=O)N1CC(=O)NN (centres undefined),"inconclusive [inhibitor, full curve, poor fit]"
7,O=c1[nH]c(CN2CCN(c3ccccc3O)CC2)nc2scc(-c3ccccc3Cl)c12,active: 12.6 µM
8,O=C(COC(=O)CNC(=O)c1ccccc1)Nc1ccc(S(=O)(=O)N2CCCC2)cc1,"inconclusive [inhibitor, single point]"
9,COc1ccc(OC)c(-n2nnnc2SCC(=O)NCCc2ccccc2)c1,"inconclusive [inhibitor, full curve]"
10,Cc1ccc(N2CC(NC(=O)C(=O)c3c[nH]c4ccccc34)CC2=O)cc1C (centres undefined),inactive
11,COc1ccc(S(=O)(=O)NC2CC(=O)N(c3ccc(C)c(C)c3)C2)cc1 (centres undefined),"inconclusive [inhibitor, single point]"
12,CCCCCn1c(=O)[nH]c2c(c1=O)CCC2,inactive
13,CN(c1ccccc1)c1nc(N)c([N+](=O)[O-])c(NCc2ccccc2)n1,"inconclusive [inhibitor, single point]"
14,O=C(Cn1c(=O)n(Cc2ccco2)c(=O)c2c3c(sc21)CCCC3)Nc1ccccc1,"inconclusive [inhibitor, single point]"
15,O=C(Cc1cccc2ccccc12)Nc1ccc(O)cc1C(=O)O,"inconclusive [inhibitor, single point]"
16,Oc1ccc(-c2csc(Nc3ncccn3)n2)c(O)c1,inactive
17,CN(c1ccccc1)c1nc(N)c([N+](=O)[O-])c(N2CCCCCC2)n1,"inconclusive [inhibitor, single point]"
18,CCOC(=O)CSC1=C(C#N)C(c2ccco2)C(C(=O)OCc2ccccc2)=C(C)N1 (centres undefined),"inconclusive [inhibitor, single point]"
19,CCOc1ccccc1OCC(O)CNC (centres undefined),inactive
20,COc1ccc(Cc2nnc(Nc3ccc(Cl)cc3)[nH]c2=O)cc1,inactive
21,CCN(C(=O)COC(=O)/C=C/c1ccccc1Cl)c1c(N)n(Cc2ccccc2)c(=O)[nH]c1=O,"inconclusive [inhibitor, single point]"
22,Cn1cc(NC(=O)CCl)cn1,"inconclusive [inhibitor, partial curve]"
23,CC(C)COP(=O)(c1ccc(N(C)C)cc1)C(O)c1ccccc1F (centres undefined),active: 3.55 µM

row,Compound,Potency
1,Cc1cc2nc(/N=C(\N)NC(=O)C(C)C)nc(C)c2cc1C,active: 11.2 µM
2,CC(C(=O)Nc1ccc(F)cc1Cl)N1CCN(S(=O)(=O)c2cccs2)CC1 (centres undefined),"inconclusive [inhibitor, full curve]"
3,CCC1(c2ccccc2)ON(c2c(Br)cccc2Br)C1=O (centres undefined),"inconclusive [inhibitor, partial curve, poor fit]"
4,O=c1c2cc(NC(=S)NC3CCCC3)ccc2nc2n1CCCCC2,"inconclusive [inhibitor, partial curve]"
5,Clc1ccc2c(c1)C(c1ccccc1Cl)=NCc1nnc(N3CCN(CCOc4ccccc4)CC3)n1-2,"inconclusive [inhibitor, single point]"
6,COc1cccc(-c2nnc(SC(C(=O)c3c[nH]c4ccccc34)c3ccccc3)n2C)c1 (centres undefined),"inconclusive [inhibitor, partial curve]"
7,CCCCC(=O)NCc1ccc2c(c1)cc(C)n2C,inactive
8,CCN(CC)CCCNc1ccc(-c2nnc(-c3ccc(OCC(C)C)cc3)o2)cn1,active: 8.91 µM
9,COc1c(C)cc(C(=O)C2CCCN(Cc3cnc(C)s3)C2)cc1C (centres undefined),"inconclusive [inhibitor, single point]"
10,C/C(=N\NC1=NCCN1)c1ccc(Cl)cc1,inactive
11,O=C1C=C(Nc2cccc(Cl)c2)CC(c2ccco2)C1 (centres undefined),inactive
12,Cc1nn(-c2ccccc2)c2nc(-c3ccncc3)cc(C(=O)NCc3ccco3)c12,"inconclusive [inhibitor, partial curve]"
13,COC(=O)c1cccc(NC(=O)NC23CC4CC(CC(C4)C2)C3)c1,"inconclusive [inhibitor, single point]"
14,COC(=O)c1ccccc1NC(=O)CSc1nc(Nc2ccccc2)nc(N2CCOCC2)n1,"inconclusive [inhibitor, single point]"
15,Cc1sc(NC(=O)c2ccco2)nc1-c1ccc2c(c1)CC(C)N2C(=O)C1CC1 (centres undefined),active: 5.01 µM
16,O=C(O)c1ccc(NS(=O)(=O)c2cccc(C(=O)Nc3cccc(C(=O)O)c3)c2)cc1,inactive
17,CC(=O)c1c(-c2ccc(C)cc2)nc2c3ccccc3ccn12,"inconclusive [inhibitor, partial curve, poor fit]"
18,O=C(c1ccc(OCC2CCCO2)cc1)N1CCc2ccccc2C1 (centres undefined),inactive
19,O=C(NNC(=S)NCc1ccccc1)c1ccccc1OC(F)F,inactive
20,CCn1c(-c2ccc(N(C)C)cc2)nc2ccccc21,"inconclusive [inhibitor, single point]"
21,CCOC(=O)c1cc2c(=O)c3cc(C)ccc3oc2nc1C,inactive
22,O=C(/C=C/c1ccc(S(=O)(=O)N2CCOCC2)cc1)NC(=S)NCCCn1ccnc1,active: 22.4 µM
23,Cc1ncc(C[n+]2csc(CCOC(=O)CC34CC5CC(CC(C5)C3)C4)c2C)c(N)n1,"inconclusive [inhibitor, partial curve]"

row,Compound,Potency
1,COc1ccc(-c2nnc3ccc(SC(C(C)=O)C(C)=O)nn23)cc1OC,inactive
2,O=C(CN1C(=O)NC2(CCCC2)C1=O)Nc1cc(Cl)ccc1N1CCOCC1,inactive
3,COc1cc2c(cc1NC(=O)CSc1ccc(Cl)cc1)oc1ccccc12,active: 10 µM
4,CCCc1cc(=O)[nH]c(SCC(=O)N(CC(C)C)C2CCS(=O)(=O)C2)n1 (centres undefined),"inconclusive [inhibitor, single point]"
5,CC(=O)N(O)CCCCCNC(=O)CCC(=O)N(O)CCCCCNC(=O)CCC(=O)N(O)CCCCCN,active: 14.1 µM
6,Cc1cc(=O)oc2cc(OCC(=O)N3CCC(C(N)=O)CC3)ccc12,"inconclusive [inhibitor, partial curve, poor fit]"
7,O=C(NC1CCN(Cc2ccccc2)CC1)c1ccccc1OCc1ccccc1,active: 25.1 µM
8,COC(=O)N/N=C/c1cc(Cl)c(OCc2ccc(F)cc2)c(OC)c1,"inconclusive [inhibitor, partial curve]"
9,CCC(C)[C@H](NC(=O)[C@@H]1Cc2c([nH]c3ccccc23)C2c3ccccc3C(=O)N21)C(=O)NCC1CCCO1 (some centres undefined),"inconclusive [inhibitor, full curve]"
10,COc1ccc(CN2CCCC(C(=O)c3ccc(Cl)cc3)C2)c(O)c1 (centres undefined),"inconclusive [inhibitor, single point]"
11,COC(=O)[C@H](C)NC(=O)NCCC1=CCCCC1,"inconclusive [inhibitor, single point]"
12,O=C(NC1CCCCCCC1)c1c(O)c2ccccc2[nH]c1=O,"inconclusive [inhibitor, partial curve]"
13,O=C(Cn1ncc(Cl)c(Cl)c1=O)N1CCN(S(=O)(=O)c2ccc3ccccc3c2)CC1,active: 5.62 µM
14,CC(C)[C@H](NC(=O)N1c2ccccc2NC(=O)[C@@H]1C(C)C)C(=O)N1CCC[C@H]1C(=O)O,inactive
15,Brc1ccc(OCc2nc(-c3ccccn3)n[nH]2)cc1,"inconclusive [inhibitor, single point]"
16,O=C(CN1C(=O)NC2(CCCC2)C1=O)N1CCN(c2ccccc2Cl)CC1,"inconclusive [inhibitor, single point]"
17,Cc1cc(=O)[nH]c(SCC2COC3(CCCCC3)O2)n1 (centres undefined),"inconclusive [inhibitor, single point]"
18,O=C(NCCCc1ccccc1)c1cccc(NC(=O)C2CCC2)c1,"inconclusive [inhibitor, partial curve]"
19,COc1ccc(Nc2nc(NCc3ccco3)nc(N/N=C/c3ccccc3)n2)cc1,inactive
20,COC(=O)[C@]12C(=O)NC[C@H](CN1c1ccc(Cl)c(C)c1)N2C,"inconclusive [inhibitor, partial curve]"
21,Nc1nc(SCC(=O)Nc2ccccc2)nc2nc3c(cc12)CCCC3,"inconclusive [inhibitor, single point]"
22,CC(=O)Nn1cnc2c(c1=O)C1(CCCCC1)Cc1ccccc1-2,"inconclusive [inhibitor, single point]"
23,C[C@H](O)c1[nH]c2cc(F)ccc2c1[C@H](C)O,"inconclusive [inhibitor, partial curve]"
